Measurements published in publication PMC10905564.
Results are given in words; binding and its absence hold for the method and conditions named. Some results given as binding are weak or reduced against the parent protein; the word gives no strength.

T1: LATE FLOWERING (LATE), full-length (Arabidopsis thaliana) (UniProt Q9FKA9)
T1 sequence: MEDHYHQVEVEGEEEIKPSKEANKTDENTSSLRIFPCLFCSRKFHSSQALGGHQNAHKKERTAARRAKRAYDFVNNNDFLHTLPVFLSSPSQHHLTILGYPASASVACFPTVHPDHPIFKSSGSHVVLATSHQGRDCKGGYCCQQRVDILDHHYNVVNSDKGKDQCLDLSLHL

B1: CRABS CLAW (CRC) (protein, UniProt Q8L925 1-181)
chain: MNLEEKPTMTASRASPQAEHLYYVRCSICNTILAVGIPLKRMLDTVTVKCGHCGNLSFLTTTPPLQGHVSLTLQMQSFGGSDYKKGSSSSSSSSTSSDQPPSPSPPFVVKPPEKKQRLPSAYNRFMRDEIQRIKSANPEIPHREAFSAAAKNWAKYIPNSPTSITSGGHNMIHGLGFGEKK
B2: LATE FLOWERING (LATE), full-length (protein, UniProt Q9FKA9 1-173)
chain: T1 sequence
B3: TOPLESS (TPL) (protein, UniProt Q94AI7 1-1131)
chain: MSSLSRELVFLILQFLDEEKFKETVHKLEQESGFFFNMKYFEDEVHNGNWDEVEKYLSGFTKVDDNRYSMKIFFEIRKQKYLEALDKHDRPKAVDILVKDLKVFSTFNEELFKEITQLLTLENFRENEQLSKYGDTKSARAIMLVELKKLIEANPLFRDKLQFPTLRNSRLRTLINQSLNWQHQLCKNPRPNPDIKTLFVDHSCGPPNGARAPSPVNNPLLGGIPKAGGFPPLGAHGPFQPTASPVPTPLAGWMSSPSSVPHPAVSAGAIALGGPSIPAALKHPRTPPTNASLDYPSADSEHVSKRTRPMGISDEVNLGVNMLPMSFSGQAHGHSPAFKAPDDLPKTVARTLSQGSSPMSMDFHPIKQTLLLVGTNVGDIGLWEVGSRERLVQKTFKVWDLSKCSMPLQAALVKEPVVSVNRVIWSPDGSLFGVAYSRHIVQLYSYHGGEDMRQHLEIDAHVGGVNDISFSTPNKQLCVITCGDDKTIKVWDAATGVKRHTFEGHEAPVYSVCPHYKENIQFIFSTALDGKIKAWLYDNMGSRVDYDAPGRWCTTMAYSADGTRLFSCGTSKDGESFIVEWNESEGAVKRTYQGFHKRSLGVVQFDTTKNRYLAAGDDFSIKFWDMDAVQLLTAIDGDGGLQASPRIRFNKEGSLLAVSGNENVIKIMANSDGLRLLHTFENISSESSKPAINSIAAAAAAAATSAGHADRSANVVSIQGMNGDSRNMVDVKPVITEESNDKSKIWKLTEVSEPSQCRSLRLPENLRVAKISRLIFTNSGNAILALASNAIHLLWKWQRNERNATGKATASLPPQQWQPASGILMTNDVAETNPEEAVPCFALSKNDSYVMSASGGKISLFNMMTFKTMATFMPPPPAATFLAFHPQDNNIIAIGMDDSTIQIYNVRVDEVKSKLKGHSKRITGLAFSNVLNVLVSSGADAQLCVWNTDGWEKQRSKVLPLPQGRPNSAPSDTRVQFHQDQAHFLVVHETQLAIYETTKLECMKQWAVRESLAPITHATFSCDSQLVYASFMDATVCVFSSANLRLRCRVNPSAYLPASLSNSNVHPLVIAAHPQEPNMFAVGLSDGGVHIFEPLESEGKWGVAPPAENGSASGAPTAPSVGASASDQPQR
B4: HDA19 (protein, UniProt O22446 1-501)
chain: MDTGGNSLASGPDGVKRKVCYFYDPEVGNYYYGQGHPMKPHRIRMTHALLAHYGLLQHMQVLKPFPARDRDLCRFHADDYVSFLRSITPETQQDQIRQLKRFNVGEDCPVFDGLYSFCQTYAGGSVGGSVKLNHGLCDIAINWAGGLHHAKKCEASGFCYVNDIVLAILELLKQHERVLYVDIDIHHGDGVEEAFYATDRVMTVSFHKFGDYFPGTGHIQDIGYGSGKYYSLNVPLDDGIDDESYHLLFKPIMGKVMEIFRPGAVVLQCGADSLSGDRLGCFNLSIKGHAECVKFMRSFNVPLLLLGGGGYTIRNVARCWCYETGVALGVEVEDKMPEHEYYEYFGPDYTLHVAPSNMENKNSRQMLEEIRNDLLHNLSKLQHAPSVPFQERPPDTETPEVDEDQEDGDKRWDPDSDMDVDDDRKPIPSRVKREAVEPDTKDKDGLKGIMERGKGCEVEVDESGSTKVTGVNPVGVEEASVKMEEEGTNKGGAEQAFPPKT
B5: KNUCKLES (KNU) (protein, UniProt Q9FFX4 1-161)
chain: MAEPPPSYLHFVGPAKTRSSSKRHSFSSSAHPASHRLFPCQYCPRKFYTSQALGGHQNAHKRERAAARRNLGVLANSPPILDDNNTFLRPYPCFYQNPFQGSTSGNEPLQEQPTMMTMDGYDPFHPYPYVYPFALSGNNNDGGNGVMEEDEPLDLDLSLRL

Biological target: T1, LATE FLOWERING (LATE), full-length (Arabidopsis thaliana)
Assay: two-hybrid; bait fused to Gal4 DNA-BD (pDEST_GBKT7), prey fused to Gal4 AD (pDEST_GADT7), yeast strain Y2H gold; spotted onto SD -W/-L or SD -W/-L/-H with 0, 0.05 or 0.1 mM 3-AT; 30°C in the dark, 7-10 days

Binder | binding
B1 | binds
B2 | binds
B3 | binds
B4 | no binding
B5 | no binding
